{
  "source": "the supplement of paper PMC8728848",
  "experiment_in_all_cases": "glycan array binding signal (z-score within array); higher = stronger binding",
  "conditions_in_all_cases": "glycan notation: IUPAC condensed, linker removed",
  "key": {"[1]": {"biological_target": "Neu5Ac(a2-3)Gal(b1-3)]Neu5Ac(a2-3)Gal(b1-4)]GlcNAc", "procedure,_shortened": "(§1)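 Columns mapping to the same glycan were averaged after glycan names were converted to IUPAC-condensed notation. The data come from 3228 arrays in the Consortium for Functional Glycomics database, limited to those with an available protein sequence. Binding is reported as a within-array Z-score averaged across arrays of one protein sequence and across linkers.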"}, "Neu5Ac(a2-3)Gal(b1-4)Glc": {"biological_target": "Neu5Ac(a2-3)Gal(b1-4)Glc", "procedure,_shortened": "as §1"}, "[2]": {"biological_target": "Neu5Ac(a2-3)Gal(b1-4)GlcNAc", "procedure,_shortened": "as §1"}, "[3]": {"biological_target": "Neu5Ac(a2-3)Gal(b1-4)GlcNAc(b1-2)Man", "procedure,_shortened": "as §1"}, "[4]": {"biological_target": "Neu5Ac(a2-3)Gal(b1-4)GlcNAc(b1-2)Man(a1-3)[GlcNAc(b1-4)][Neu5Ac(a2-3)Gal(b1-4)GlcNAc(b1-2)Man(a1-6)]Man(b1-4)GlcNAc(b1-4)GlcNAc", "procedure,_shortened": "as §1"}, "[5]": {"biological_target": "Neu5Ac(a2-3)Gal(b1-4)GlcNAc(b1-2)Man(a1-3)[Neu5Ac(a2-3)Gal(b1-4)GlcNAc(b1-2)Man(a1-6)]Man(b1-4)GlcNAc(b1-4)GlcNAc", "procedure,_shortened": "as §1"}, "[6]": {"biological_target": "Neu5Ac(a2-3)Gal(b1-4)GlcNAc(b1-2)Man(a1-3)[Neu5Ac(a2-3)Gal(b1-4)GlcNAc(b1-2)Man(a1-6)]Man(b1-4)GlcNAc(b1-4)[Fuc(a1-6)]GlcNAc", "procedure,_shortened": "as §1"}, "[7]": {"biological_target": "Neu5Ac(a2-3)Gal(b1-4)GlcNAc(b1-2)Man(a1-3)[Neu5Ac(a2-6)Gal(b1-4)GlcNAc(b1-2)Man(a1-6)]Man(b1-4)GlcNAc(b1-4)GlcNAc", "procedure,_shortened": "as §1"}, "[8]": {"biological_target": "Neu5Ac(a2-3)Gal(b1-4)GlcNAc(b1-2)[Neu5Ac(a2-3)Gal(b1-4)GlcNAc(b1-4)]Man(a1-3)[GlcNAc(b1-4)][Neu5Ac(a2-3)Gal(b1-4)GlcNAc(b1-2)[Neu5Ac(a2-3)Gal(b1-4)GlcNAc(b1-6)]Man(a1-6)]Man(b1-4)GlcNAc(b1-4)GlcNAc", "procedure,_shortened": "as §1"}, "[9]": {"biological_target": "Neu5Ac(a2-3)Gal(b1-4)GlcNAc(b1-2)[Neu5Ac(a2-3)Gal(b1-4)GlcNAc(b1-4)]Man(a1-3)[GlcNAc(b1-4)][Neu5Ac(a2-3)Gal(b1-4)GlcNAc(b1-4)Man(a1-6)]Man(b1-4)GlcNAc(b1-4)GlcNAc", "procedure,_shortened": "as §1"}, "[10]": {"biological_target": "Neu5Ac(a2-3)Gal(b1-4)GlcNAc(b1-2)[Neu5Ac(a2-3)Gal(b1-4)GlcNAc(b1-6)]Man(a1-6)[Neu5Ac(a2-3)Gal(b1-4)GlcNAc(b1-2)Man(a1-3)][GlcNAc(b1-4)]Man(b1-4)GlcNAc(b1-4)GlcNAc", "procedure,_shortened": "as §1"}, "[11]": {"biological_target": "Neu5Ac(a2-3)Gal(b1-4)GlcNAc(b1-3)Gal", "procedure,_shortened": "as §1"}, "[12]": {"biological_target": "Neu5Ac(a2-3)Gal(b1-4)GlcNAc(b1-3)Gal(b1-3)GlcNAc", "procedure,_shortened": "as §1"}, "[13]": {"biological_target": "Neu5Ac(a2-3)Gal(b1-4)GlcNAc(b1-3)Gal(b1-4)GlcNAc", "procedure,_shortened": "as §1"}, "[14]": {"biological_target": "Neu5Ac(a2-3)Gal(b1-4)GlcNAc(b1-3)Gal(b1-4)GlcNAc(b1-2)Man(a1-3)[Neu5Ac(a2-3)Gal(b1-4)GlcNAc(b1-3)Gal(b1-4)GlcNAc(b1-2)Man(a1-6)]Man(b1-4)GlcNAc(b1-4)GlcNAc", "procedure,_shortened": "as §1"}, "[15]": {"biological_target": "Neu5Ac(a2-3)Gal(b1-4)GlcNAc(b1-3)Gal(b1-4)GlcNAc(b1-3)Gal(b1-4)GlcNAc", "procedure,_shortened": "as §1"}, "[16]": {"biological_target": "Neu5Ac(a2-3)Gal(b1-4)GlcNAc(b1-3)Gal(b1-4)GlcNAc(b1-3)Gal(b1-4)GlcNAc(b1-2)Man(a1-3)[Neu5Ac(a2-3)Gal(b1-4)GlcNAc(b1-3)Gal(b1-4)GlcNAc(b1-3)Gal(b1-4)GlcNAc(b1-2)Man(a1-6)]GalNAc", "procedure,_shortened": "as §1"}, "[17]": {"biological_target": "Neu5Ac(a2-3)Gal(b1-4)GlcNAc(b1-3)Gal(b1-4)GlcNAc(b1-3)GalNAc", "procedure,_shortened": "as §1"}, "[18]": {"biological_target": "Neu5Ac(a2-3)Gal(b1-4)GlcNAc(b1-3)Gal(b1-4)GlcNAc(b1-3)[Neu5Ac(a2-3)Gal(b1-4)GlcNAc(b1-3)Gal(b1-4)GlcNAc(b1-6)]GalNAc", "procedure,_shortened": "as §1"}, "[19]": {"biological_target": "Neu5Ac(a2-3)Gal(b1-4)GlcNAc(b1-3)Gal(b1-4)GlcNAc(b1-6)[Gal(b1-3)]GalNAc", "procedure,_shortened": "as §1"}, "[20]": {"biological_target": "Neu5Ac(a2-3)Gal(b1-4)GlcNAc(b1-3)Gal(b1-4)[Fuc(a1-3)]GlcNAc", "procedure,_shortened": "as §1"}, "[21]": {"biological_target": "Neu5Ac(a2-3)Gal(b1-4)GlcNAc(b1-3)GalNAc", "procedure,_shortened": "as §1"}, "[22]": {"biological_target": "Neu5Ac(a2-3)Gal(b1-4)GlcNAc(b1-3)[Neu5Ac(a2-3)Gal(b1-4)GlcNAc(b1-6)]GalNAc", "procedure,_shortened": "as §1"}, "[23]": {"biological_target": "Neu5Ac(a2-3)Gal(b1-4)GlcNAc(b1-6)GalNAc", "procedure,_shortened": "as §1"}, "[24]": {"biological_target": "Neu5Ac(a2-3)Gal(b1-4)GlcNAc(b1-6)[Gal(b1-3)]GalNAc", "procedure,_shortened": "as §1"}, "[25]": {"biological_target": "Neu5Ac(a2-3)Gal(b1-4)GlcNAc(b1-6)[Neu5Ac(a2-3)Gal(b1-3)]GalNAc", "procedure,_shortened": "as §1"}, "[26]": {"biological_target": "Neu5Ac(a2-3)Gal(b1-4)GlcNAc6S", "procedure,_shortened": "as §1"}, "[27]": {"biological_target": "Neu5Ac(a2-3)Gal(b1-4)[Fuc(a1-3)]GlcNAc", "procedure,_shortened": "as §1"}, "[28]": {"biological_target": "Neu5Ac(a2-3)Gal(b1-4)[Fuc(a1-3)]GlcNAc(b1-2)Man", "procedure,_shortened": "as §1"}, "[29]": {"biological_target": "Neu5Ac(a2-3)Gal(b1-4)[Fuc(a1-3)]GlcNAc(b1-3)Gal", "procedure,_shortened": "as §1"}, "[30]": {"biological_target": "Neu5Ac(a2-3)Gal(b1-4)[Fuc(a1-3)]GlcNAc(b1-3)Gal(b1-4)GlcNAc", "procedure,_shortened": "as §1"}, "[31]": {"biological_target": "Neu5Ac(a2-3)Gal(b1-4)[Fuc(a1-3)]GlcNAc(b1-3)Gal(b1-4)[Fuc(a1-3)]GlcNAc(b1-3)Gal(b1-4)[Fuc(a1-3)]GlcNAc", "procedure,_shortened": "as §1"}, "[32]": {"biological_target": "Neu5Ac(a2-3)Gal(b1-4)[Fuc(a1-3)]GlcNAc(b1-3)GalNAc", "procedure,_shortened": "as §1"}, "[33]": {"biological_target": "Neu5Ac(a2-3)Gal(b1-4)[Fuc(a1-3)]GlcNAc(b1-6)[Gal(b1-3)]GalNAc", "procedure,_shortened": "as §1"}, "[34]": {"biological_target": "Neu5Ac(a2-3)Gal(b1-4)[Fuc(a1-3)]GlcNAc(b1-6)[Neu5Ac(a2-3)Gal(b1-3)]GalNAc", "procedure,_shortened": "as §1"}, "[35]": {"biological_target": "Neu5Ac(a2-3)Gal(b1-4)[Fuc(a1-3)]GlcNAc6S", "procedure,_shortened": "as §1"}, "[36]": {"biological_target": "Neu5Ac(a2-3)Gal6S(b1-4)GlcNAc", "procedure,_shortened": "as §1"}, "[37]": {"biological_target": "Neu5Ac(a2-3)Gal6S(b1-4)[Fuc(a1-3)]GlcNAc", "procedure,_shortened": "as §1"}},
  "note": "This is one part of the list.",
  "data": [
    {"binder": "Pwp5 ND (Candida glabrata) (protein) MGSSHHHHHHSSGLVPRGSHMASANPVPLTNVCYFPEEYPRQAGFRAITAGLASTILQGSVDELLNYSGLSSLTTQQTTTTTPNFQLPTLPLPTNVYGLTVVPLYLLVQLQGYFVPPVSGQYTFSLENTNDAAIIFFGNPSAFPCGDLSAWPQASADDITVTDGTFPSRTLFLKAGVAYPMRISYYNSLGSGNLAVSFTDPGGTKRTNWNGYIWRYNSCSTCTYT", "values": [
      {"measurement": "glycan array binding signal (z-score)", "setting": "[1]", "result": 1.75},
      {"measurement": "glycan array binding signal (z-score)", "setting": "Neu5Ac(a2-3)Gal(b1-4)Glc", "result": -0.688},
      {"measurement": "glycan array binding signal (z-score)", "setting": "[2]", "result": -0.588},
      {"measurement": "glycan array binding signal (z-score)", "setting": "[3]", "result": 0.033},
      {"measurement": "glycan array binding signal (z-score)", "setting": "[4]", "result": -0.181},
      {"measurement": "glycan array binding signal (z-score)", "setting": "[5]", "result": 0.15},
      {"measurement": "glycan array binding signal (z-score)", "setting": "[6]", "result": -0.184},
      {"measurement": "glycan array binding signal (z-score)", "setting": "[7]", "result": 0.39},
      {"measurement": "glycan array binding signal (z-score)", "setting": "[8]", "result": -0.564},
      {"measurement": "glycan array binding signal (z-score)", "setting": "[9]", "result": -0.544},
      {"measurement": "glycan array binding signal (z-score)", "setting": "[10]", "result": 13},
      {"measurement": "glycan array binding signal (z-score)", "setting": "[11]", "result": 0.949},
      {"measurement": "glycan array binding signal (z-score)", "setting": "[12]", "result": -0.332},
      {"measurement": "glycan array binding signal (z-score)", "setting": "[13]", "result": 0.211},
      {"measurement": "glycan array binding signal (z-score)", "setting": "[14]", "result": -0.247},
      {"measurement": "glycan array binding signal (z-score)", "setting": "[15]", "result": -0.612},
      {"measurement": "glycan array binding signal (z-score)", "setting": "[16]", "result": 0.463},
      {"measurement": "glycan array binding signal (z-score)", "setting": "[17]", "result": 2.38},
      {"measurement": "glycan array binding signal (z-score)", "setting": "[18]", "result": 4.41},
      {"measurement": "glycan array binding signal (z-score)", "setting": "[19]", "result": -0.721},
      {"measurement": "glycan array binding signal (z-score)", "setting": "[20]", "result": 0.552},
      {"measurement": "glycan array binding signal (z-score)", "setting": "[21]", "result": -0.202},
      {"measurement": "glycan array binding signal (z-score)", "setting": "[22]", "result": 1.35},
      {"measurement": "glycan array binding signal (z-score)", "setting": "[23]", "result": 1.67},
      {"measurement": "glycan array binding signal (z-score)", "setting": "[24]", "result": 0.165},
      {"measurement": "glycan array binding signal (z-score)", "setting": "[25]", "result": -0.144},
      {"measurement": "glycan array binding signal (z-score)", "setting": "[26]", "result": -0.3},
      {"measurement": "glycan array binding signal (z-score)", "setting": "[27]", "result": -0.271},
      {"measurement": "glycan array binding signal (z-score)", "setting": "[28]", "result": -0.294},
      {"measurement": "glycan array binding signal (z-score)", "setting": "[29]", "result": -0.263},
      {"measurement": "glycan array binding signal (z-score)", "setting": "[30]", "result": -0.099},
      {"measurement": "glycan array binding signal (z-score)", "setting": "[31]", "result": -0.248},
      {"measurement": "glycan array binding signal (z-score)", "setting": "[32]", "result": -0.138},
      {"measurement": "glycan array binding signal (z-score)", "setting": "[33]", "result": 0.398},
      {"measurement": "glycan array binding signal (z-score)", "setting": "[34]", "result": 0.547},
      {"measurement": "glycan array binding signal (z-score)", "setting": "[35]", "result": 0.989},
      {"measurement": "glycan array binding signal (z-score)", "setting": "[36]", "result": -0.565},
      {"measurement": "glycan array binding signal (z-score)", "setting": "[37]", "result": -0.299}
    ]}
  ]
}
